According to PubChem BioAssay AID485294 (National Center for Advancing Translational Sciences (NCATS), 2010):
The whole screen tested about 370,000 compounds, of which about 150 (0.041%) were called active. The inconclusive results got no clear call from the source; some entries with a clear call stand among them for comparison. Calls come from the whole dose curve; as a rule, active = well fitted inhibition curve with a large enough effect; inconclusive = small, poorly fitted or top-dose-only effect; inactive = flat fitted curve, though single readings scatter. No potency is given beside an inconclusive call; the fits are too rough.

target: Beta-lactamase (Escherichia coli (strain K12)) (UniProt P00811); experiment: qHTS Inhibitors of AmpC Beta-Lactamase (assay with detergent); settings: AmpC hydrolysis of nitrocefin, absorbance 480 nm, 0.01% Triton; activity change, negative = inhibition: at 114 µM (top of the series); note: nearly all actives have a fitted effect of over 25% in size;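 for activity change, negative = inhibition: 0% = no-compound wells and -100% = no-enzyme wells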
Chain of UniProt P00811 (P00811 whole entry, looked up): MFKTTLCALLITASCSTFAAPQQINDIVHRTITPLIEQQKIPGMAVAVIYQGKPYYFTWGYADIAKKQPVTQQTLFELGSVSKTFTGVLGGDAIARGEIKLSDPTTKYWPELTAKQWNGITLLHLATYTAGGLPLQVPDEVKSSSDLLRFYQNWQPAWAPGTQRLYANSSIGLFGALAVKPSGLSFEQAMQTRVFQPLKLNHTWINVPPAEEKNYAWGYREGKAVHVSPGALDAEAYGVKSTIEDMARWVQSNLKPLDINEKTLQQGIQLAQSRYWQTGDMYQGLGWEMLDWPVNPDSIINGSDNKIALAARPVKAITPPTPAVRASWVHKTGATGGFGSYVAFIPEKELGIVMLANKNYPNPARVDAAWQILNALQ
How it was run: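 AmpC (5.3 nM in the dispensed reagent) in 20 mM phosphate pH 7.0 with 0.01% (detergent screen) or 0.0001% Triton X-100 was preincubated with compounds for 15 min at room temperature. Nitrocefin was then added from an 800 uM solution, and hydrolysis was followed at 480 nm.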
Potency is the fitted concentration of half-maximal effect; tags give direction and shape of the fitted curve.

Row | Structure (SMILES) | Potency | activity change, negative = inhibition
1 | CC(c1ccccc1)C1CC(=O)N(c2ccccc2)C1=O (centres undefined) | inconclusive [inhibitor, full curve, poor fit] | –
2 | Cc1cccc(N/C(=N\S(=O)(=O)c2ccccc2)C(F)(F)F)c1 | inconclusive [inhibitor, partial curve, poor fit] | –
3 | CN(C)C(CNC(=O)c1ccc(S(=O)(=O)Nc2ccccc2F)cc1)c1ccco1 (centres undefined) | inconclusive [inhibitor, full curve] | –
4 | CN(C)c1ccccc1C(=O)N1CCC(n2nccc2NC(=O)C2CC2)CC1 | inconclusive [inhibitor, full curve, poor fit] | –
5 | COC(=O)CN1C(c2ccccc2O)Nc2ccc(Br)cc2C1c1ccccc1 (centres undefined) | inconclusive [inhibitor, full curve, poor fit] | –
6 | COc1cccc(C2C(C(=O)/C=C/c3ccco3)=C(O)C(=O)N2CCN2CCOCC2)c1 (centres undefined) | – | inactive: 8.23%
7 | O=C(Oc1c(Cl)cc(Cl)c2cccnc12)c1ccco1 | – | inactive: 6.72%
8 | Cc1noc(N)c1C(=O)Nc1ccc(C(C)(C)C)cc1 | – | inactive: -15.2%
9 | Cc1ccccc1CNC(=O)c1oc2c(c1C)-c1nn(Cc3ccc(Cl)cc3)cc1CC2 | – | inactive: 12.6%
10 | O=C(Nc1nc2ccccc2s1)c1ccc(N2CCCCC2)c([N+](=O)[O-])c1 | – | inactive: 1.78%
11 | COc1nc(OC)nc(N2CCC(C(=O)NCC3CCCCC3)CC2)n1 | inconclusive [inhibitor, full curve, poor fit] | –
12 | Cc1cc(Cl)ccc1NC(=O)COC(=O)CCNS(=O)(=O)c1ccccc1 | – | inactive: -11.1%
13 | CCOC(=O)CNc1c(-c2ccc(OC)cc2)nc2ccc(Cl)cn12 | inconclusive [inhibitor, partial curve, poor fit] | –
14 | O=C1CN=C(c2ccc(F)cc2)c2oc3ccccc3c2N1 | inconclusive [inhibitor, full curve, poor fit] | –
15 | Cc1ccc(C2CC2C(=O)NNC(=S)Nc2cccc(C)c2)cc1 (centres undefined) | – | inactive: -2.69%
16 | CCOC(=O)N1CCN(C(=O)c2ccccc2NC(=O)COc2ccccc2)CC1 | – | inactive: 0.0576%
17 | COc1ccc(/C=N/Nc2nnc(Cc3ccc(OC)c(OC)c3)c(=O)[nH]2)cc1OC | inconclusive [inhibitor, full curve] | –
18 | COc1cc(CCC(=O)Nc2ccc(C)c(S(=O)(=O)N(C)C)c2)cc(OC)c1OC | – | inactive: -2.97%
19 | COc1ccc([N+](=O)[O-])cc1C(=O)NCCOc1ccc(Cl)cc1 | inconclusive [inhibitor, full curve, poor fit] | –
20 | Cc1nc2cc(-c3ccccc3)nn2c(C)c1CCC(=O)N1CCC2(CC1)OCCO2 | inconclusive [inhibitor, single point] | –
21 | N#Cc1ccccc1CSc1ccccn1 | inconclusive [inhibitor, full curve, poor fit] | –
22 | COc1ccc(NC(=O)c2ccc(-c3ccc(-c4noc(C)n4)cc3C)cc2)cc1N1CCN(C)CC1 | – | inactive: -6.24%

Row | Structure (SMILES) | Potency | activity change, negative = inhibition
23 | C=CCn1c(COc2ccc(F)cc2)nnc1SCC(=O)c1c[nH]c2c(CC)cccc12 | inconclusive [inhibitor, single point] | –
24 | CCOC(=O)Cc1csc(NC(=O)C2C3C=CC(C3)C2C(=O)O)n1 (centres undefined) | inconclusive [inhibitor, partial curve] | –
25 | COC(=O)C1C(=O)C2=C(CC1C)NC(=O)CC2c1ccccc1 (centres undefined) | – | inactive: -10.8%
26 | Cc1cccc(CC(=O)Nc2cc(=O)n(C)c(=O)n2C)c1 | inconclusive [inhibitor, full curve, poor fit] | –
27 | CCOC(=O)C1CCCN(C(=O)/C=C/c2ccc([N+](=O)[O-])cc2)C1 (centres undefined) | inconclusive [inhibitor, single point] | –
28 | Cc1ccc(CNC(=O)CSc2nc3ccccc3[nH]2)cc1 | – | inactive: 0.14%
29 | Cc1cc(OCc2cc(C(=O)N(Cc3nccn3C)C(C)C)no2)cc(C)c1Cl | inconclusive [inhibitor, full curve, poor fit] | –
30 | CN1CCN(c2ccccc2NC(=O)c2cc(Br)ccc2Cl)CC1 | inconclusive [inhibitor, full curve, poor fit] | –
31 | Cn1c(SCC(=O)Nc2nccs2)nnc1C1CC1 | inconclusive [inhibitor, full curve, poor fit] | –
32 | Cc1ccc(S(=O)(=O)N2CCN(c3nn(C)c(=O)n(C)c3=O)CC2)cc1C | inconclusive [inhibitor, single point] | –
33 | O=C(c1ccc(Cl)cc1)C1CCN(C(=O)c2ccccc2)CC1 | inconclusive [inhibitor, full curve, poor fit] | –
34 | CC1CCN(C(=O)C2CCN(c3nnc(-n4cccc4)s3)CC2)CC1 | inconclusive [inhibitor, partial curve] | –
35 | Cn1cc(Cl)c(C(=O)Nc2nccs2)n1 | – | inactive: -0.626%
36 | CC(C)OC(=O)[C@H]1[C@H](c2ccc(Cl)cc2)[C@@](C#N)(C(N)=O)[C@@H]2C=CC(C(N)=O)=CN21 | inconclusive [inhibitor, full curve] | –
37 | O=C(Cn1nc(-c2ccccc2)nc(Cc2ccccc2)c1=O)Nc1ccc(Cl)cc1 | – | inactive: 8.2%
38 | O=C(COC(=O)CCC(=O)c1ccc(F)cc1)Nc1ccc(N2CCOCC2)cc1 | inconclusive [inhibitor, partial curve] | –
39 | N#CCCN(C(=O)COc1ccc(F)cc1Br)c1ccccc1F | inconclusive [inhibitor, full curve] | –
40 | Cc1cccc(NC(=O)Cn2nnc(C(=O)NCc3ccco3)c2N)c1 | inactive | –
41 | CCOC(=O)N1CCN(C(=O)C2CCC(=O)N2C(C)C)CC1 (centres undefined) | inconclusive [inhibitor, single point] | –
42 | CNC(=O)c1ccc(CNC(=O)OCc2ccccc2)cc1 | inconclusive [inhibitor, full curve, poor fit] | –
43 | COc1ccc(Cn2nnnc2C(c2cc3cccc(C)c3[nH]c2=O)N2CCOCC2)cc1 (centres undefined) | inconclusive [inhibitor, single point] | –
44 | Cc1ccc(CNCCCSc2nc(C)cc(C)n2)cc1 | inconclusive [inhibitor, partial curve] | –
